Screen size: about 410,000 compounds; about 7,200 (1.8%) were called active. The shares of active, inactive and inconclusive entries below differ from those in the screen. The call rests on the fitted dose curve; in most records, active means well fitted activation curve with a large enough effect; inconclusive means small, poorly fitted or top-dose-only effect, or another doubt; inactive means no such curve, though single readings can be large or run the other way. No potency is given beside an inconclusive call; the fits are too rough.
assay: qHTS of TDP-43 Inhibitors; settings: TDP-43 expressing yeast growth rescue, BacTiter-Glo, 24 h; growth rescue (activation): at 46.1 µM (top of the series) unless noted; further: nearly all actives have a fitted effect of over 50% in size; on growth rescue (activation): % of control where 0% means no effect
Summary of the method: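 Readout is BacTiter-Glo luminescence of cell growth, so inhibitors register as activators. TDP-43-expressing yeast at OD600=0.02 in galactose medium, after raffinose pregrowth to mid-log, were incubated with compound for 24 hr at 30 deg C.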
Potency means the concentration at half of the fitted maximal effect; tags describe the fitted curve by direction and shape.

Compound	Potency	growth rescue (activation)
CCOc1ccc(C)cc1-n1nc2ccccc2n1	inconclusive [activator, single point]	
Cc1ccc2c(=O)cc(C(=O)Nc3ccc(S(=O)(=O)N4CCC(C)CC4)cc3)oc2c1C	inactive	
N/C(=N\OC(=O)c1ccc2ccccc2c1)c1ccccn1		inactive: -13.1% [at 0.397 µM]
O=C(c1cc(COc2c(F)cccc2F)on1)N1CCN(C2CCCCC2)C(=O)C1	inconclusive [activator, single point]	
O=C(C1CCCO1)N1CCN(C(=S)Nc2cccc(Cl)c2)CC1 (centres undefined)	inconclusive [activator, full curve]	
N#Cc1ccc(Cn2c(=O)oc3ccccc32)cc1	inconclusive [activator, full curve, poor fit]	
COc1ccc(-c2csc(C(O)c3ccc(F)cc3)n2)cn1 (centres undefined)	active: 35.5 µM	
Cc1cccc(N=Nc2c(C)nn(-c3ccccc3)c2N)c1C	active: 20 µM	
CCCn1ccc2c(OCC(=O)Nc3cc(C)ccc3C)cccc2c1=O	inconclusive [activator, partial curve]	
CC(=O)c1sc(N/N=C\c2ccc(C)cc2)nc1C	inconclusive [activator, partial curve]	
CCn1c(SCCOc2ccc(Cl)cc2)nnc1-c1cccs1	inconclusive [activator, single point]	
C/C(Cl)=C\Cn1c(O)c(N=NC(N)=S)c2cc(Br)ccc21	inconclusive [activator, partial curve]	
CCSc1nsc(NC(=O)Nc2cccc(F)c2)n1		inconclusive: 37.1% [activator]
Cc1ccc(-c2nnc(SCC#CCOC(=O)c3ccco3)o2)cc1	inconclusive [activator, partial curve]	
COc1ccccc1N(C)c1cc2c(c3c1ccn3C)C1CCC2O1 (centres undefined)	inconclusive [activator, partial curve]	
COc1ccc(OCc2nc(N)nc(Nc3ccccc3)n2)cc1	inconclusive [activator, single point]	
COc1cccc(-c2cn3c(n2)sc2cc(C(=O)NCCCc4ccccc4)ccc23)c1	inactive	
Cc1cc(C)cc(C(=O)N2CCCCCC2)c1	inactive	
CC(NS(=O)(=O)c1ccccc1)C(=O)NCCc1ccccn1 (centres undefined)	inconclusive [activator, full curve, poor fit]	
CCCn1c(C(C)Nc2nc(-c3cccc(Br)c3)cs2)nc2ccccc21 (centres undefined)	inconclusive [activator, partial curve, poor fit]	
Cc1ccc(-c2cc(-c3ccccc3)nc(N/N=C/c3cccnc3)n2)cc1	inconclusive [activator, single point]	
c1ccc(-c2ccnc3nc(N4CCN(c5ccccc5)CC4)nn23)cc1	active: 12.6 µM	

Compound	Potency	growth rescue (activation)
COc1cc(/C=C/C(=O)OC(C)C(=O)Nc2ccc(Cl)cn2)ccc1OC(F)F (centres undefined)	inconclusive [activator, single point]	
CC(=O)C(Sc1nccc(-c2cccs2)n1)C(C)=O	inconclusive [activator, single point]	
CCCn1c(=O)sc2cc(NC(=O)c3ccc(OC)c(Br)c3)ccc21	inconclusive [activator, partial curve]	
COc1cc(-c2nc3ccc4ccccc4c3c3c2CCC3)ccc1O	inconclusive [activator, single point]	
COc1cc(SC)ccc1C(=O)N1CCCc2ccccc21	inconclusive [activator, partial curve]	
Fc1ccc(CNC(=S)NCc2cccc(Cl)c2)cc1	inconclusive [activator, single point]	
O=S(=O)(c1ccc2ccccc2c1)N1CCCOC1	inconclusive [activator, partial curve, poor fit]	
Cc1ccc([C@H]2N[C@]3(CCCN(Cc4ccccc4)C3=O)[C@H]3C(=O)N(Cc4ccccc4)C(=O)[C@@H]23)cc1	inconclusive [activator, single point]	
Cc1cc(N2CCOCC2)nc(N2CCOCC2)c1C#N	inconclusive [activator, single point]	
Cc1ccc(/C=C2\SC(=S)N(C3CCS(=O)(=O)C3)C2=O)o1 (centres undefined)	inconclusive [activator, single point]	
O=C(Cc1ccccc1)NCCCc1ccccc1	inconclusive [activator, partial curve]	
O=C(Nc1ccc(S(=O)(=O)N2CCCCC2c2cccnc2)cc1)c1ccc(Br)cc1 (centres undefined)	inactive	
O=C(Nc1ccc(F)cc1C(F)(F)F)C1CCN(c2ncccn2)CC1	inconclusive [activator, full curve]	
Cc1cccc(NC(=O)c2c(C)cc(C)nc2SCC(=O)c2ccccc2)c1	inconclusive [activator, partial curve]	
Cc1cc(C)c2oc(C(=O)Nc3ccc(S(=O)(=O)N4CCCCCC4)cc3)cc(=O)c2c1	inactive	
COc1ccc(CN2CCN(c3cccc(C)c3C)CC2)cc1OC	inactive	
CC(=O)N1c2ccc(S(=O)(=O)N3CCC(C(=O)NC4CCCCC4C)CC3)cc2CC1C (centres undefined)	inconclusive [activator, full curve, poor fit]	
CN1CCN(/N=C/c2ccc(N(c3ccccc3)c3ccccc3)cc2)CC1	inconclusive [activator, partial curve]	
Fc1ccc(Br)cc1C1C=C(c2cccnc2)Nc2ncnn21 (centres undefined)	active: 25.1 µM	
C=C1C(=O)[C@]23C[C@H]1CC[C@H]2[C@]1(C)[C@@H](O)CC[C@@](C)(C(=O)O)[C@H]1C[C@@H]3O	inactive	
CCCCC[C@@H]1C=C(C(=O)O)[C@H](c2ccc(Br)cc2)N1S(=O)(=O)c1ccc(C)cc1	inconclusive [activator, partial curve]	
O=C(NN=Cc1cc(Cl)ccc1[N+](=O)[O-])c1ccco1	inactive	
